Measurements: the supplement of paper PMC10126150
Values marked as one replicate rest on one cluster of the flow cell; about a third of the high ones do not repeat.
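Also: ATP exposure 15 min at 22 °C before imaging.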

These sequences were tested on ATP (assay: switch fluorescence ratio, 500 uM ATP over buffer (Cy3 cluster intensity, sum of 5 cycles each) (fold (ratio)); higher = stronger signal-on switching upon ATP binding; sequences stand for … in TCGTCGGCAGCGTCAGATGTGTATAAGAGACAGTTTTTTTTTTTTTTTTTTTTTTTTT…TC). Settings: aptamer strand: ATP DNA aptamer (quencher-CACCTGGGGGAGTATTGCGGAGGAAGG + anchor), 100 nM annealed; ATP concentration: 500 uM; one replicate.
In short: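 Switching-strand clusters labelled with Cy3 on a modified Illumina MiSeq flow-cell were annealed to 100 nM quencher-labelled ATP aptamer, imaged in selection buffer, and re-imaged after 15 min with 500 uM ATP at 22 °C. This was done over five cycles with NaOH stripping and re-annealing in between. The fluorescence ratio is summed target-cycle over summed buffer-cycle Cy3 intensity per cluster, averaged per switch-domain sequence, excluding clusters outside 100-1000 RFU.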
AACGTGAGCT gave a switch fluorescence ratio of 1.06.
In the case of AACGTGATCG, the switch fluorescence ratio is reported as 1.
AACGTGCCGC showed a switch fluorescence ratio of 1.24.
AACGTTACTG showed a switch fluorescence ratio of 1.45.
Work on AACGTTCCGG yielded a switch fluorescence ratio of 1.02.
AACTAAAATT gave a switch fluorescence ratio of 1.01.
AACTAAAGGT gave a switch fluorescence ratio of 1.02.
For AACTAGGTT, the switch fluorescence ratio was 0.991.
In the case of AACTATTGGG, the switch fluorescence ratio is reported as 1.01.
For AACTCAATTT, the switch fluorescence ratio was 1.03.
Sequence AACTCCAGCG has a switch fluorescence ratio of 1.16.
AACTCTCACC gave a switch fluorescence ratio of 1.11.
Work on AACTGCGTTG yielded a switch fluorescence ratio of 0.946.
AACTGCTCCA was tested, and the switch fluorescence ratio was 1.08.
For AACTGGCGAG, the switch fluorescence ratio was 1.03.
Sequence AACTGGCTCG has a switch fluorescence ratio of 0.991.
AACTGGGTAA was tested, and the switch fluorescence ratio was 1.21.
AACTGTATGT gave a switch fluorescence ratio of 1.07.
Sequence AACTGTTAGA has a switch fluorescence ratio of 1.01.
AACTGTTCGC gave a switch fluorescence ratio of 0.973.
AACTTATTT showed a switch fluorescence ratio of 0.993.
AACTTCATTT was tested, and the switch fluorescence ratio was 1.03.
With AACTTCCATC the switch fluorescence ratio was 1.09.
AACTTGAACT gave a switch fluorescence ratio of 1.
AACTTTAAG was tested, and the switch fluorescence ratio was 1.02.
With AACTTTAAGC the switch fluorescence ratio was 1.03.
AACTTTTGAC gave a switch fluorescence ratio of 1.04.
AACTTTTTG was tested, and the switch fluorescence ratio was 0.974.
Sequence AAGAAACTAA has a switch fluorescence ratio of 1.
AAGAACCCCA showed a switch fluorescence ratio of 1.02.
AAGAAGTAAG was tested, and the switch fluorescence ratio was 0.947.
Work on AAGAAGTTAC yielded a switch fluorescence ratio of 0.987.
Work on AAGAATCGTA yielded a switch fluorescence ratio of 0.967.
Work on AAGACAGATT yielded a switch fluorescence ratio of 1.01.
Work on AAGACAGCGT yielded a switch fluorescence ratio of 0.958.
AAGACAGGCG gave a switch fluorescence ratio of 1.07.
AAGACATGGA was tested, and the switch fluorescence ratio was 1.
For AAGACCCAAT, the switch fluorescence ratio was 1.06.
AAGACGGCTC gave a switch fluorescence ratio of 1.05.
For AAGACGGGAC, the switch fluorescence ratio was 1.22.
AAGACGGTTA was tested, and the switch fluorescence ratio was 0.984.
Work on AAGACGGTTC yielded a switch fluorescence ratio of 1.01.
AAGACGTGTT was tested, and the switch fluorescence ratio was 0.971.
AAGACTCATG showed a switch fluorescence ratio of 0.995.
Sequence AAGACTTATG has a switch fluorescence ratio of 0.99.
For AAGAGACCTA, the switch fluorescence ratio was 1.01.
AAGAGATGGG showed a switch fluorescence ratio of 1.
Sequence AAGAGATTCA has a switch fluorescence ratio of 0.985.
In the case of AAGAGGAGTT, the switch fluorescence ratio is reported as 0.983.
In the case of AAGAGGGCCA, the switch fluorescence ratio is reported as 0.994.
With AAGATACACG the switch fluorescence ratio was 1.08.
Sequence AAGATCTTA has a switch fluorescence ratio of 1.02.
AAGATTAACG was tested, and the switch fluorescence ratio was 0.964.
For AAGATTCCCT, the switch fluorescence ratio was 1.04.
AAGATTGGGC was tested, and the switch fluorescence ratio was 1.01.
Sequence AAGATTTC has a switch fluorescence ratio of 0.992.
AAGCAACGTG was tested, and the switch fluorescence ratio was 1.05.
Work on AAGCAATCAT yielded a switch fluorescence ratio of 1.22.
AAGCAATGGT showed a switch fluorescence ratio of 2.15.
Sequence AAGCAATGTA has a switch fluorescence ratio of 1.2.
For AAGCACAATA, the switch fluorescence ratio was 1.19.
AAGCACTTAG was tested, and the switch fluorescence ratio was 1.12.
For AAGCAGCCAT, the switch fluorescence ratio was 1.
Work on AAGCATCAAT yielded a switch fluorescence ratio of 0.95.
For AAGCATTAGG, the switch fluorescence ratio was 1.02.
AAGCCACTTT was tested, and the switch fluorescence ratio was 1.09.
In the case of AAGCCATTTG, the switch fluorescence ratio is reported as 0.994.
With AAGCCCACTT the switch fluorescence ratio was 0.973.
In the case of AAGCCCATTT, the switch fluorescence ratio is reported as 1.01.
For AAGCCGACAC, the switch fluorescence ratio was 1.15.
AAGCGACATG showed a switch fluorescence ratio of 1.02.
In the case of AAGCGATGCT, the switch fluorescence ratio is reported as 1.11.
For AAGCGCAAGT, the switch fluorescence ratio was 1.04.
AAGCGCACCC gave a switch fluorescence ratio of 1.13.
AAGCGCCATC gave a switch fluorescence ratio of 1.08.
Sequence AAGCGGATAA has a switch fluorescence ratio of 1.1.
With AAGCGGGGTA the switch fluorescence ratio was 0.989.
AAGCGGTACG was tested, and the switch fluorescence ratio was 1.06.
For AAGCGTTCAC, the switch fluorescence ratio was 1.07.
AAGCTCACTC showed a switch fluorescence ratio of 1.13.
With AAGCTCCTGC the switch fluorescence ratio was 0.987.
AAGCTCTTTC showed a switch fluorescence ratio of 1.01.
For AAGCTGATGG, the switch fluorescence ratio was 1.
AAGCTTCAC was tested, and the switch fluorescence ratio was 1.36.
AAGCTTCGGC was tested, and the switch fluorescence ratio was 1.09.
In the case of AAGCTTCTCC, the switch fluorescence ratio is reported as 1.72.
Sequence AAGCTTTCAT has a switch fluorescence ratio of 0.971.
Work on AAGGAAAAGA yielded a switch fluorescence ratio of 1.01.
With AAGGAAAGA the switch fluorescence ratio was 1.03.
AAGGAACCAT gave a switch fluorescence ratio of 1.03.
With AAGGACTGTT the switch fluorescence ratio was 0.984.
In the case of AAGGAGCGTG, the switch fluorescence ratio is reported as 0.997.
AAGGAGGTCT showed a switch fluorescence ratio of 0.971.
AAGGAGTGGT showed a switch fluorescence ratio of 0.983.
AAGGATCACA was tested, and the switch fluorescence ratio was 0.984.
Work on AAGGCAAATG yielded a switch fluorescence ratio of 1.04.
With AAGGCACAGG the switch fluorescence ratio was 1.25.
AAGGCAGTAT gave a switch fluorescence ratio of 1.02.
AAGGCATGGT gave a switch fluorescence ratio of 1.01.
In the case of AAGGCGACGC, the switch fluorescence ratio is reported as 1.01.
